Data reported in US20260209301A1 (LIFEARC, published 2026).
Read-outs that look alike come from different tables or passages of the source.

Tests used:
human GalR2 [1] = molecular target: T1, human GalR2 (human, UniProt O43603 1-387); assay: cell-based or functional assay
T1 sequence (looked up): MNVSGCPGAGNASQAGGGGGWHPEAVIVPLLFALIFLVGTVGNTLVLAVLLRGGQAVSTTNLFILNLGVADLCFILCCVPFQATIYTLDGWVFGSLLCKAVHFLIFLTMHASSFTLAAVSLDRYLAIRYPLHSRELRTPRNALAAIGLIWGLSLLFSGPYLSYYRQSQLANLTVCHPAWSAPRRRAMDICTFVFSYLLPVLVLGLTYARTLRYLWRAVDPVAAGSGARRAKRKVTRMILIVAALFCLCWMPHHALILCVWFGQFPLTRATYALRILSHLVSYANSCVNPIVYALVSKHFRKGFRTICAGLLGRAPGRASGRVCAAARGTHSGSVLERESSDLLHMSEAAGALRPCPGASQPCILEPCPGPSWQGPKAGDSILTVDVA

human GalR1 [2] = molecular target: T2, human GalR1 (human, UniProt P47211 1-349); assay: cell-based or functional assay
T2 sequence (looked up): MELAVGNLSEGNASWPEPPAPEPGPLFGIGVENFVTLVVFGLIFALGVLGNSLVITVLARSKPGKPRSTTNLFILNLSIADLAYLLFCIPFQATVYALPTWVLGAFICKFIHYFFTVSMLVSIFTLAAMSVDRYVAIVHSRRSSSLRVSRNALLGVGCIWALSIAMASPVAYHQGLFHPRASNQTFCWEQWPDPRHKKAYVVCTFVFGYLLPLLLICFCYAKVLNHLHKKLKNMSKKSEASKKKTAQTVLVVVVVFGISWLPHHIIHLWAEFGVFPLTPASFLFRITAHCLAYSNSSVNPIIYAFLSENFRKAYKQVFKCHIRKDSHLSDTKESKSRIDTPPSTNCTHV

human GalR2 [3] = molecular target: T1, human GalR2; assay: cell-based or functional assay; remark: listed apart in the source
human GalR2 [4] = molecular target: T1, human GalR2; assay: cell-based or functional assay; remark: listed apart in the source
human GalR2 [5] = molecular target: T1, human GalR2; assay: radioligand competition: displacement of [125I]-galanin from membranes of cells overexpressing GalR2
human GalR2 [6] = molecular target: T1, human GalR2; assay: cell-based or functional assay; remark: listed apart in the source
human GalR1 [7] = molecular target: T2, human GalR1; assay: cell-based or functional assay; remark: listed apart in the source
mouse GalR2 = molecular target: T3, mouse GalR2 (Mus musculus, UniProt O88854 1-371); assay: cell-based or functional assay
T3 sequence (looked up): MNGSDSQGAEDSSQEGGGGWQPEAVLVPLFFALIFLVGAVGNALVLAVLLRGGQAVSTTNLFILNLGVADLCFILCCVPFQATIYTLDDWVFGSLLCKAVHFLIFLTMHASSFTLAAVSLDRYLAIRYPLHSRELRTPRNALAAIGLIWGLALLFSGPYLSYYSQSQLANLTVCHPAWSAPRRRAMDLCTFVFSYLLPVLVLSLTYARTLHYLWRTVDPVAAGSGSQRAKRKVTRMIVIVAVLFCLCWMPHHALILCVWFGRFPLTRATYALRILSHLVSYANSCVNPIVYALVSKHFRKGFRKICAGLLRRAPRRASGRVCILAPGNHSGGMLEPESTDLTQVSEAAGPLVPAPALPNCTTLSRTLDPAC

rat GalR2 = molecular target: T4, rat GalR2 (Rattus rattus, UniProt O08726 1-372); assay: cell-based or functional assay
T4 sequence (looked up): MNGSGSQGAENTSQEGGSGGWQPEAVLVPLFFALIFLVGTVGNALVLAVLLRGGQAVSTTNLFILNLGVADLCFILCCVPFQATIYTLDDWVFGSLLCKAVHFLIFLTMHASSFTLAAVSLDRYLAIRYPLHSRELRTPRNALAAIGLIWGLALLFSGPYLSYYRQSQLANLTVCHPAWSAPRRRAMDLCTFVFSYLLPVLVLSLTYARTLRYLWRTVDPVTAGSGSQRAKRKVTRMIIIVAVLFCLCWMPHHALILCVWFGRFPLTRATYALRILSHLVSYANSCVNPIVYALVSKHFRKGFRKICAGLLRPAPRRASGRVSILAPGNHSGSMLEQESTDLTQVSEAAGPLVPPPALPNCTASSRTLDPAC

cynomolgus GalR2 = molecular target: T5, cynomolgus GalR2 (Macaca fascicularis, UniProt A0A2K5WWW1 1-386); assay: cell-based or functional assay
T5 sequence: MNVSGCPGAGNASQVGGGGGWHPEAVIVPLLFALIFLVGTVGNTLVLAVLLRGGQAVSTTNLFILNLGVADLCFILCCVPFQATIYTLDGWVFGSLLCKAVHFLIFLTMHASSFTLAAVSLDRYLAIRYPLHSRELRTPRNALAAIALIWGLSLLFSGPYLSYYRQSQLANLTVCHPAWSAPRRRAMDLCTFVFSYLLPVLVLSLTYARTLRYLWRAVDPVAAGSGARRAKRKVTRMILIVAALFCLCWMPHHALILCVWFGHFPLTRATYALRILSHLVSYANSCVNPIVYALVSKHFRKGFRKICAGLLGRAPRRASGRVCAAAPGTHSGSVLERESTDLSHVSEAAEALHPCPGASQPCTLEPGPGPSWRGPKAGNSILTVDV

B1: Gal2-13FC GGS2 (Fc fusion)
chain: WTLNSAGYLLGPGGSGGSLEPKSSDKTHTCPPCTRUE[human IgG1 Fc not spelt out]
Human GalR2 [1]
  calcium assay activity (quantity not given): 6.4
Human GalR1 [2]
  cAMP assay activity (quantity not given): 5.5

B2: Gal2-12FC (Fc fusion)
chain: WTLNSAGYLLGAEAAAKEAAAKAL[human IgG1 Fc with C220S (EU numbers) not spelt out]
notes: also called Gal2-12FC Mature chimeric protein
Human GalR2 [3]
  Beta Arrestin pEC50: 7.6 pEC50
  Calcium pEC50: 6.3 pEC50
Human GalR2 [4]
  luciferase reporter gene assay (NFAT-RE), activity; quantity not named: 320 nM
Human GalR2 [5]
  pIC50: 7.24 pIC50
Human GalR2 [6]
  calcium assay activity (quantity not given): 6.6

B3: Gal1-30FC (Fc fusion)
chain: GWTLNSAGYLLGPHAVGNHRSFSDKNGLTSAEAAAKEAAAKALEPKSSDKTHTCPPCTRUE[human IgG1 Fc not spelt out]
Human GalR1 [7]
  Beta Arrestin IA (%): 88.1%
  Beta Arrestin pEC50: 5.72 pEC50
  cAMP IA (%): 93.4%
  cAMP pEC50: 8.4 pEC50
Human GalR2 [3]
  Beta Arrestin pEC50: 5.7 pEC50
  Calcium pEC50: 6.4 pEC50

B4: Gal2-17FC (Fc fusion)
chain: WTLNSAGYLLGPHAVGAEAAAKEAAAKALEPKSSDKTHTCPPCTRUE[human IgG1 Fc not spelt out]
Human GalR2 [6]
  calcium assay activity (quantity not given): 6.6

B5: Gal2-14FC (Fc fusion)
chain: WTLNSAGYLLGPHAEAAAKEAAAKALEPKSSDKTHTCPPCTRUE[human IgG1 Fc not spelt out]
Human GalR2 [6]
  calcium assay activity (quantity not given): 6.7

B6: Gal2-18FC (Fc fusion)
chain: WTLNSAGYLLGPHAVGNAEAAAKEAAAKALEPKSSDKTHTCPPCTRUE[human IgG1 Fc not spelt out]
Human GalR2 [3]
  Beta Arrestin pEC50: 7.3 pEC50
  Calcium pEC50: 6.7 pEC50
Human GalR2 [6]
  calcium assay activity (quantity not given): 6.7

B7: Gal2-16FC (Fc fusion)
chain: WTLNSAGYLLGPHAVAEAAAKEAAAKALEPKSSDKTHTCPPCTRUE[human IgG1 Fc not spelt out]
Human GalR2 [6]
  calcium assay activity (quantity not given): 6.9

B8: Gal2-24FC (Fc fusion)
chain: WTLNSAGYLLGPHAVGNHRSFSDAEAAAKEAAAKALEPKSSDKTHTCPPCTRUE[human IgG1 Fc not spelt out]
Human GalR2 [3]
  Beta Arrestin pEC50: 7.6 pEC50
  Calcium pEC50: 6.9 pEC50
Human GalR2 [6]
  calcium assay activity (quantity not given): 6.9

B9: Gal2-13FC GGS4 (Fc fusion)
chain: WTLNSAGYLLGPGGSGGSGGSGGSLEPKSSDKTHTCPPCTRUE[human IgG1 Fc not spelt out]
Human GalR2 [1]
  calcium assay activity (quantity not given): 6.2
Human GalR1 [2]
  cAMP assay activity (quantity not given): 5.3

B10: Gal2-30FC (Fc fusion)
chain: WTLNSAGYLLGPHAVGNHRSFSDKNGLTSAEAAAKEAAAKAL[human IgG1 Fc with C220S (EU numbers) not spelt out]
notes: also called Gal2-30FC Mature chimeric protein
Human GalR2 [3]
  Beta Arrestin pEC50: 7.3 pEC50
  Calcium pEC50: 6.6 pEC50
Human GalR2 [4]
  luciferase reporter gene assay (NFAT-RE), activity; quantity not named: 59 nM
Human GalR2 [5]
  pIC50: 7.55 pIC50
Human GalR2 [6]
  calcium assay activity (quantity not given): 6.8

B11: Gal2-13FC PA4 (Fc fusion)
chain: WTLNSAGYLLGPPAPAPAPALEPKSSDKTHTCPPCTRUE[human IgG1 Fc not spelt out]
Human GalR2 [1]
  calcium assay activity (quantity not given): 6.8
Human GalR1 [2]
  cAMP assay activity (quantity not given): 6.1

B12: Gal2-15FC (Fc fusion)
chain: WTLNSAGYLLGPHAAEAAAKEAAAKALEPKSSDKTHTCPPCTRUE[human IgG1 Fc not spelt out]
Human GalR2 [6]
  calcium assay activity (quantity not given): 6.8

B13: Gal2-13FC (Fc fusion)
chain: WTLNSAGYLLGPAEAAAKEAAAKAL[human IgG1 Fc with C220S (EU numbers) not spelt out]
notes: also called Gal2-13FC Mature chimeric protein; FC2-13
Human GalR2 [3]
  Beta Arrestin pEC50: 6.7 pEC50
  Calcium pEC50: 6.3 pEC50
Mouse GalR2
  calcium assay activity (quantity not given): 6.4
Rat GalR2
  calcium assay activity (quantity not given): 6.5
Cynomolgus GalR2
  calcium assay activity (quantity not given): 7.7
Human GalR2 [4]
  luciferase reporter gene assay (NFAT-RE), activity; quantity not named: 312 nM
Human GalR2 [5]
  pIC50: 7.35 pIC50
Human GalR2 [1]
  calcium assay activity (quantity not given): 6.4
Human GalR2 [6]
  calcium assay activity (quantity not given): 6.4

B14: Gal2-13FC GGS (Fc fusion)
chain: WTLNSAGYLLGPGGSLEPKSSDKTHTCPPCTRUE[human IgG1 Fc not spelt out]
Human GalR2 [1]
  calcium assay activity (quantity not given): 6.4
Human GalR1 [2]
  cAMP assay activity (quantity not given): 5.3
